Results reported in the supplement of paper PMC3334620.
In all, about 33,000 sequences were measured (“E-score (-0.5 to 0.5)”: median about -0.01, highest 2% from about 0.26 on). The list shows a part of the results.

target: Ste12 (UniProt P13574); experiment: PBM E-score (8-mer binding enrichment) (E-score (-0.5 to 0.5)); higher = stronger / more preferred TF binding; most listed sequences are background and not binding sites; details: protein concentration: 200 nM; construct: GST-DNA-binding domain
Outline: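 Each ungapped eight-base word and its reverse complement, pooled, received an E-score from the Universal PBM Analysis Suite. Underlying scans, normalised with masliner, recorded fluorescent anti-GST bound to GST-tagged yeast transcription factors. These were applied at about 100-200 nM to universal all-10-mer Agilent arrays double-stranded by primer extension.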

Row | Sequence | PBM E-score
1 | AGCTGAAA | 0.264
2 | ATGGCTCA | -0.147
3 | AATGTCCT | -0.149
4 | AGGTACTC | -0.0759
5 | ACCTGCGG | -0.0627
6 | CACGATCA | 0.0026
7 | CGCATGCC | 0.161
8 | AGGACTCA | -0.199
9 | AACCTGAC | 0.137
10 | AGACCTCA | 0.0121
11 | TAAGCAGA | 0.0155
12 | CCAACGCA | 0.0286
13 | CCCAACGA | -0.00084
14 | ACCTTAGT | -0.137
15 | GACGACTC | -0.184
16 | GAGGGATC | -0.126
17 | GAAGTTTA | -0.079
18 | AGTCGGCG | 0.0939
19 | ACTCGTGC | -0.211
20 | CTCGCAGC | 0.0324
21 | ACCGATGG | 0.0521
22 | AGCTATAC | -0.0424

Row | Sequence | PBM E-score
23 | GAAGTTGC | -0.16
24 | CGACATAA | -0.0078
25 | CGTCCCAG | -0.07
26 | ACGTGTTG | -0.0628
27 | AGATGCTC | -0.136
28 | CAGTGGCG | 0.0149
29 | GTAGGCCA | -0.16
30 | CTCCACGC | -0.00372
31 | CCCTAGTA | 0.0343
32 | ACCGACCT | 0.0276
33 | GACTGAGA | 0.0132
34 | CTACTCCA | -0.0132
35 | ACTCGCCT | -0.0323
36 | CATGGTGA | -0.0853
37 | GCGTCCCC | -0.16
38 | AGGGTGGC | -0.0324
39 | CGCTCGAG | 0.161
40 | ACTAACGG | -0.126
41 | ATGGCGTA | -0.0602
42 | GCTACTTA | -0.135
43 | GAAGACTA | -0.0635
44 | GATGGCCC | -0.197

Row | Sequence | PBM E-score
45 | GATAACAA | 0.15
46 | CATGTGAA | 0.12
47 | CATGGCTC | -0.21
48 | GGTCAAAA | 0.0927
49 | CCCAGGGC | -0.256
50 | ACCGGACC | 0.00077
51 | CCAATGTC | 0.0116
52 | AACAGGAT | 0.0667
53 | GGGCCAAC | -0.215
54 | CTTTGGCA | -0.0669
55 | AAAAGGAA | 0.188
56 | AGCTGGAC | -0.22
57 | AAAACTAC | 0.0758
58 | GACTCTGC | -0.0845
59 | GGAATGTA | 0.0732
60 | CTACCTAA | 0.12
61 | ACCTTACC | 0.116
62 | TAGCAACA | 0.0836
63 | CCGCTAGC | -0.186
64 | GGACGCGA | -0.107
65 | AGCTGTAT | -0.092
66 | AACAGCGA | 0.00299

Row | Sequence | PBM E-score
67 | ATGAACAA | 0.0445
68 | GAGGCTAC | -0.195
69 | AATAGGCA | 0.0915
70 | CGAGTTTC | 0.251
71 | AGTGGTTG | 0.0844
72 | ACGGCGTG | -0.0929
73 | GAAGGACC | -0.227
74 | GAATAGCC | -0.189
75 | ATTTGCCG | 0.0984
76 | CTCTCCTA | -0.0454
77 | AACATACG | 0.143
78 | AGTGCTTG | -0.0429
79 | CGAATGTC | 0.0146
80 | AAGCACCA | -0.0324
81 | AATGCCCG | -0.0805
82 | ACCAATAG | -0.217
83 | CCTCTGCC | -0.13
84 | CACTCCGA | -0.155
85 | ACTCTACA | -0.144
86 | AGCACGCT | -0.222
87 | TCCATGCA | 0.107
88 | TCTTAAAA | 0.156

Row | Sequence | PBM E-score
89 | CTTAGTAA | 0.0288
90 | GTTATGGA | 0.00832
91 | AAAGGTCG | -0.0413
92 | TCATTAAA | 0.324
93 | CTTACGTC | -0.167
94 | ACTGTAGG | 0.0333
95 | ACGAAGGA | -0.0803
96 | GCCAGCCC | -0.0859
97 | CCGTAAAC | 0.0542
98 | CCATGGAC | -0.138
99 | ACAGAAGT | -0.00525
100 | ATCGATCA | 0.108
101 | TCACCTGA | -0.0766
102 | GATCATCA | -0.115
103 | AGGCGACC | -0.232
104 | ACCGAAGC | -0.101
105 | ATCGCGCG | 0.0537
106 | ACGAAGGC | -0.205
107 | ACGCCTCT | -0.111
108 | CGCCGATA | 0.00496
109 | CGAGCCTC | -0.108
110 | CCGCAGGA | -0.0635
